Measurements as given in PubChem BioAssay AID463173 (ICCB-Longwood Screening Facility, Harvard Medical School, 2010).
About 1,700 (3.3%) of roughly 52,000 compounds were called active. Rule as the data show it: active = survival mostly below about 52% (no sharp cut-off); inactive = mostly above about 56%. The list shows a part of the results.

These molecules were tested on Wild type (assay: S. aureus survival, RN4220 and DeltatarO strains – OD600, teichoic acid synthesis inhibitors, primary screen (AID 463173)). Settings: S. aureus RN4220 wild type/DeltatarO growth, OD600, 18 h, active compounds read low, screened at 18.75 µg/mL (by protocol).

| Compound | survival |
| --- | --- |
| COc1ccc(-c2cc(C(F)(F)F)nc(SCC(=O)NCc3ccc(OC)c(OC)c3)n2)cc1 | inactive: 97% |
| CCOC(=O)c1ccc(NC(=O)C2CC(=O)NC(Nc3nc4ccccc4s3)=N2)cc1 (centres undefined) | inactive: 113% |
| COc1ccc(-c2onc(C)c2C)cc1S(=O)(=O)NCc1ccco1 | inactive: 63% |
| CCc1ccc(CNC(=O)c2ccc3c(c2)nc2n3CCC(C)C2)cc1 (centres undefined) | inactive: 127% |
| COc1cccc(C(=O)Nc2cccc(OCc3cc(=O)n4cc(C)ccc4n3)c2)c1 | inactive: 90% |
| CCOc1ccc(C(=O)NCc2ccc3c(c2)CCN3C(=O)c2ccccc2)cc1 | active: -4% |
| COc1ccc(NC(=O)CN2C(=O)COc3ccc(S(=O)(=O)Nc4ccccc4)cc32)cc1 | inactive: 72% |
| CCOC(=O)CN1C(=O)c2ccccc2Sc2ncccc21 | inactive: 75% |
| Cc1nc2ccc(NC(=O)NCCCO)cc2s1 | inactive: 111% |
| CCCCc1nn2c(=O)cc(COC(=O)COc3ccc(C)cc3)nc2s1 | inactive: 75% |
| COc1ccc(C)cc1NC(=O)CN(c1ccccc1)S(=O)(=O)N(C)C | inactive: 78% |
| CC1=C(C(=O)Nc2ccc(C)cc2C)C(c2ccc(O)cc2)n2nnnc2N1 (centres undefined) | inactive: 85% |
| COc1ccc(/C=C\c2onc(C)c2S(=O)(=O)N2CCC(C(=O)Nc3ccc(C)cc3C)CC2)cc1 | inactive: 76% |
| CCc1ccc(NC(=O)CSC2=Nc3ccccc3C3=NC(CCC(=O)NCCc4ccccc4)C(=O)N23)cc1 (centres undefined) | inactive: 88% |
| CCC12CN3CC(C)(CN(C1)C3c1c[nH]c3ccccc13)C2=O (centres undefined) | inactive: 84% |
| CCC(=O)N1CCc2cc(S(=O)(=O)NC(CC(C)C)C(=O)Nc3cc(C)ccc3OC)ccc21 (centres undefined) | inactive: 78% |
| O=C(Nc1ccc(F)cc1Cl)n1ncc2cc(Cl)ccc21 | inactive: 26% |
| CCCOc1ccc(C(=O)Nc2cccc(NC(=O)c3cccc(Cl)c3)c2)cc1 | inactive: 73% |
| O=C1C2C3c4ccccc4C(c4ccccc43)C2C(=O)N1C(CO)(CO)CO (centres undefined) | inactive: 103% |
| CCCCNC(=O)C1CCN(c2nc(OC)nc(OC)n2)CC1 | inactive: 100% |

| Compound | survival |
| --- | --- |
| CCS(=O)(=O)c1ncc(N(Cc2ccco2)Cc2sccc2C)c(C(=O)Nc2ccc(C)cc2C)n1 | inactive: 89% |
| CCCNC(=O)CCNS(=O)(=O)c1ccc2c(c1)c(=O)n(C)c(=O)n2C | inactive: 89% |
| CC1(C)CC(NCC(=O)NC2CC(C)(C)NC(C)(C)C2)CC(C)(C)N1 | inactive: 113% |
| CCC(=O)N1CCc2cc(S(=O)(=O)NCCC(=O)Nc3ccc(C)cc3)ccc21 | inactive: 75% |
| CC(=O)c1cccc(Nc2ccc3cc(S(=O)(=O)N4CCC(C)CC4)ccc3n2)c1 | inactive: 69% |
| O=C(COc1ccccc1-c1nnc(-c2ccccc2)o1)Nc1ccc(Br)cc1F | inactive: 91% |
| Cc1ccc(CNC(=O)CCc2c(C)nc3nc(CNC(=O)OC(C)(C)C)nn3c2C)cc1 | inactive: 84% |
| CC(C)c1ccc(-c2nnc3n(CCc4ccccc4)c(=O)c4ccccc4n23)cc1 | inactive: 47% |
| CC(C)N1C(=O)CSC1c1ccccc1 (centres undefined) | inactive: 107% |
| Cc1cccc(NCc2nc3ccccc3n2CCOc2ccccc2C)c1 | active: -18% |
| COc1cc(C(=O)n2nc(-c3ccco3)nc2NCc2ccc(Cl)cc2)cc(OC)c1OC | inactive: 86% |
| COc1ccc(NC(=O)c2c(C)oc3ccc(O)c(CN4CCCC4)c23)cc1Cl | inactive: 86% |
| Cc1nc2cccnc2n1CCNC(=O)Nc1cccc2ccccc12 | inactive: 109% |
| COc1ccc(C(=O)NCC(c2ccc(N(C)C)cc2)N2CCCC2)c(OC)c1 (centres undefined) | inactive: 75% |
| Cc1cccc(-c2nc(CSc3nncn4c3cc3oc(C)cc34)c(C)o2)c1 | inactive: 90% |
| CCSc1ncc(Cl)c(C(=O)Nc2c(C(=O)Nc3cccc(C)c3)oc3ccccc23)n1 | inactive: 113% |
| CC(C)(C)OC(=O)N1CCC(n2nccc2N)CC1 | inactive: 104% |
| Cc1ccc2nc(-c3ccc(Cl)cc3)cc(C(=O)OCC(=O)c3ccccc3)c2c1 | inactive: 73% |
| COc1ccccc1OCC(=O)Nc1nc2c(s1)CC(C)CC2 (centres undefined) | inactive: 80% |
| CCC(C(=O)NC1CCCCC1)n1c(SCc2ccc(F)cc2)nc2ccncc21 (centres undefined) | inactive: 69% |

| Compound | survival |
| --- | --- |
| COc1ccc(NC(=O)c2sc3nc4c(cc3c2N)CN(Cc2ccccc2)CC4)cc1 | inactive: 91% |
| CCc1ccc(C2Sc3ccccc3NC3=C2C(=O)c2ccccc23)cc1 (centres undefined) | inactive: 122% |
| COc1ccc(C(=O)NCCc2sc(-c3ccc(F)cc3)nc2C)cc1OC | inactive: 66% |
| CC1CCC(NC(=O)C2(C)Cc3ccccc3C(=O)N2Cc2ccc(F)cc2)CC1 (centres undefined) | inactive: 83% |
| CCC(Cn1nnc2ccccc2c1=O)NC(=O)Nc1ccc(C)cc1C (centres undefined) | inactive: 90% |
| CCOc1ccccc1C(=O)NCc1ccc2c(c1)CCN2C(C)=O | inactive: 91% |
| Cc1ccc(C2c3[nH]c4ccccc4c3CCN2C(=O)Nc2ccc(C)c(C)c2)cc1 (centres undefined) | inactive: 83% |
| O=C(NCCc1ccc(Cl)cc1)c1ccc(CSCc2ccccc2Cl)o1 | inactive: 70% |
| CC(=O)c1cccc(NC(=O)c2nc(-c3ccc(C)cc3)n3c2CCCCC3)c1 | inactive: 72% |
| Cc1cccc(NC(=O)C2CCCN(S(=O)(=O)c3cccc4nonc34)C2)c1 (centres undefined) | inactive: 92% |
| CCOC(=O)C(C)Sc1nnc2ccc3ccccc3n12 (centres undefined) | inactive: 79% |
| Cc1ccc(NC(=O)C(=O)NCc2ccc(Cl)cc2)cc1 | inactive: 105% |
| O=C(OCCN1CCCCC1)c1cc2ccccc2o1 | inactive: 110% |
| Cc1ccc(S(=O)(=O)Nc2cccc(-c3ccc(N4CCCCC4)nn3)c2)s1 | inactive: 64% |
| CCn1c(SCC#N)nnc1-c1cccc(C)c1 | inactive: 102% |
| COc1ccc(C2(CNC(=O)C(=O)Nc3cccc(C(F)(F)F)c3)CCCC2)cc1OC | inactive: 117% |
| CCN(CC)c1ccc(C=C2C(=O)c3ccccc3C2=O)c(O)c1 | inactive: 107% |
| COc1cc(OC)c(NC(=O)CCn2cnc3onc(-c4ccc(F)cc4)c3c2=O)cc1Cl | inactive: 64% |
| Cc1oc(-c2cccc(Cl)c2)nc1CN1CCC(C(=O)NCCCN2CCN(c3cccc(Cl)c3)CC2)CC1 | inactive: 80% |
